# Test results from the supplement of paper PMC3334620.
# Over roughly 33,000 sequences, “E-score (-0.5 to 0.5)” has its median near -0.017; the highest 2% begin near 0.3. The list shows a part of the results.
# Target: T1, Sut1 (UniProt P53032)
# T1 sequence: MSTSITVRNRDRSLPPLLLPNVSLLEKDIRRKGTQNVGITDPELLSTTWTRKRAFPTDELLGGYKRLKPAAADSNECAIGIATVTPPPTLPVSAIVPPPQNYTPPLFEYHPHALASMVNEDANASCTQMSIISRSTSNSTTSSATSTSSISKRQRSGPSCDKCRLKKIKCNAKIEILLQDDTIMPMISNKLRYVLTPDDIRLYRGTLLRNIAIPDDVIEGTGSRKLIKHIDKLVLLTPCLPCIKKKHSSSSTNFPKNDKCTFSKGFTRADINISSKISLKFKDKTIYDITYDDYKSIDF
# Experiment: PBM E-score (8-mer binding enrichment) (E-score (-0.5 to 0.5)); higher = stronger / more preferred TF binding; most listed sequences are background and not binding sites
# Details: protein concentration: 200 nM; construct: GST-full length
# Method in brief: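 E-scores (a modified Wilcoxon-Mann-Whitney statistic) were assigned by the Universal PBM Analysis Suite to every ungapped eight-base word pooled with its reverse complement. The input came from universal all-10-mer Agilent arrays made double-stranded by primer extension and probed with GST-tagged yeast transcription factors at about 100-200 nM. Fluorescent anti-GST detected bound protein, and masliner normalised the scans.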
row,Sequence,PBM E-score
1,ATAGGCTA,0.0372
2,CCTAATTC,0.0749
3,CTCGACCC,-0.141
4,TATCTGAA,-0.0206
5,AAGACGGA,0.221
6,AATTTCGA,0.139
7,ATAGGAGC,-0.103
8,GAAGAGAA,0.0788
9,GTTAACAA,0.129
10,AACAGTTC,0.172
11,CTCTTTGC,-0.0141
12,GGACCCCA,-0.0896
13,ACCTCTAC,-0.0415
14,CGGTGCAG,-0.158
15,GAGAGGTA,-0.246
16,CAACTTTC,0.178
17,CGTAACCC,-0.0696
18,AATACTTC,0.13
19,CATTGTCC,0.195
20,ACATCGTC,-0.114
21,GCCTCCGC,-0.138
22,ACTCGACG,0.0405
23,CCTCGGAC,0.412
24,GCGCCAAA,0.013
25,GTCGCACA,-0.125

row,Sequence,PBM E-score
1,GCCGTCCC,-0.0362
2,CCGATTAA,0.267
3,CATATGGG,-0.132
4,AGTAAACG,-0.0776
5,CAAATCAC,-0.0609
6,AGATGCCT,-0.116
7,CGATGAAA,0.139
8,CAATAGGG,-0.12
9,ATAGCTGG,-0.19
10,AGGGGCGG,-0.158
11,ACCTAGCG,-0.151
12,AAACCCAC,0.0368
13,ACATTGTC,0.141
14,CGAGTCCC,0.014
15,AAGCCTGC,-0.113
16,CCGCTGTC,-0.0805
17,CACGTAAG,-0.142
18,AAATACTA,0.164
19,AAATTTGC,0.102
20,CCAGCAAA,-0.0863
21,TATACCGA,0.206
22,ATTGACAA,0.0436
23,GTCTGGTA,-0.0578
24,GAGGACCC,-0.0985
25,TCTACCCA,-0.112

row,Sequence,PBM E-score
1,GGCTCGAA,-0.0949
2,GATGAAGC,-0.0232
3,CATGGGTA,-0.235
4,ATAATCAG,0.115
5,CGTATGAC,0.0341
6,AAAAATTC,0.235
7,ACACGTTA,-0.223
8,AAAAGCAC,-0.00919
9,ACCATAGC,-0.0851
10,TAACAACA,0.218
11,ATTAGCCG,0.0336
12,CTTGTTGC,-0.143
13,CACCTCCA,-0.134
14,CACGTGCG,-0.26
15,ATGTAGAC,-0.0125
16,TAGGATGA,-0.0438
17,GTATTGTA,0.104
18,ATAGTTAG,0.173
19,CACTAATA,0.213
20,AGACACCT,-0.173
21,AGCATGCA,-0.136
22,AGCTCTAA,0.0936
23,CTCAAGAG,-0.154
24,ATATTGTA,0.145
25,CCTTACCG,0.0245

row,Sequence,PBM E-score
1,CTGCGACA,0.0687
2,GGGCTACC,-0.227
3,CACACGGA,0.12
4,CAATGATC,0.0137
5,ATTGGACA,0.0813
6,ATAGTACG,0.179
7,CATCGATG,-0.21
8,AAGCCAAG,-0.183
9,CCACGGGC,-0.239
10,ATACCAGG,-0.179
11,AGATTAAC,0.158
12,AGTTTGAA,0.207
13,CTCTCAGC,-0.198
14,CCCGCTCG,-0.259
15,GTTTAAGA,0.128
16,ACAATTGA,0.06
17,ACGCAGAA,-0.00882
18,ACCGCAGC,-0.315
19,GAAGTGAC,-0.148
20,CCACATGA,-0.0653
21,CCCAATTA,0.0988
22,CGAAGGGC,-0.083
23,CTCACGTC,-0.161
24,GAAACGAA,0.173
25,AAAATATG,0.206

row,Sequence,PBM E-score
1,CGGGACTA,-0.146
2,ATGCTTCG,0.0442
3,CGTGTGTC,-0.13
4,GCCAATTA,0.00797
5,ACGTTTAG,-0.183
6,ACAGGATC,-0.105
7,CGGGCTCC,-0.0544
8,AAATGATC,0.105
9,CTACAGGA,0.0208
10,CAGGACCG,-0.131
11,AAAGATAA,0.207
12,CGGGCGGA,0.0269
13,GGCCTTAC,-0.0765
14,CTTATCAC,-0.137
15,GGATGCGA,-0.222
16,ATTCCATC,0.27
17,ACCCTATA,-0.0833
18,AGGAAACT,-0.0246
19,ATGATAGC,0.0815
20,AAGAATTA,0.187
21,AAAGCCCA,0.118
22,GAAAGTCA,0.049
23,ACCCGGAA,0.197
24,CAAAATTC,0.308
25,CTGAAGGC,-0.271

row,Sequence,PBM E-score
1,GTCTAGAA,0.0897
2,TATTTAGA,0.153
3,CATCCCCG,0.0938
4,ATCTGGTC,-0.139
5,GACAAACA,-0.00941
6,TGATGCAA,-0.0323
7,AATGCACT,0.141
8,CCATTGTA,0.114
9,TACAAGCA,0.137
10,TGCCGACA,0.0327
11,CCCGAAAC,0.0905
12,ACGTATAT,0.1
13,AACGCGAC,-0.26
14,ATTACCTC,0.0885
15,AATTAACG,0.182
16,GCGTTAGA,-0.104
17,ATGCAAAG,0.0945
18,GGGCTTCA,-0.272
19,CAAACGCG,0.109
20,ATAGTCAG,-0.0499
21,GCACCAGA,-0.2
22,CCGCTTTC,0.0502
23,AGCCGCAA,-0.256
24,CGACCTCG,-0.00301
25,ACAATAAT,0.197

row,Sequence,PBM E-score
1,ACTGAAGC,-0.0682
2,CACTCCTG,-0.0764
3,TCACGAGA,-0.0654
4,GTAAACAA,0.273
5,CGCCATCC,-0.18
6,ATAGCTCC,0.0632
7,CAAAAGTC,0.191
8,CACTCCAA,0.0306
9,ATGGGAAA,0.0371
10,GTGTCTTA,-0.0906
11,ACCATAGT,0.029
12,GCTATACA,0.0896
13,GCGTAATA,0.0496
14,GACTCGGC,-0.033
15,AGTACGCG,-0.00947
16,GAATAGTC,0.0449
17,TATCCCCA,-0.114
18,CTTTCTTA,0.14
19,AAGATCCA,0.0401
20,GTTCAATA,0.206
21,CTTCCGGA,0.347
22,AACCTCTG,-0.171
